The labels stand for the following.
B1: UUCCGAC (DNA:RNA)
RNA: GGGAGACCGGAAUUCAGAUUGUCCUUCCGACUUAAAUCCCGUCGUAGCCACCA
DNA 1: CAATCTGAATTCCGGTCTCCC
DNA 2: TGGTGGCTACGACGGGATT
B2: CUAAAAC (DNA:RNA)
RNA: B1 RNA with U25C, C27A, C28A, G29A
DNA 1: CAATCTGAATTCCGGTCTCCC
DNA 2: TGGTGGCTACGACGGGATT
B3: CCAUAUG (DNA:RNA)
RNA: GGGAGACCGGAAUUCAGAUUGUCCCCAUAUGUUAAAUCCCGUCGUAGCCACCA
DNA 1: CAATCTGAATTCCGGTCTCCC
DNA 2: TGGTGGCTACGACGGGATT
B4: CGAAAUA (DNA:RNA)
RNA: B3 RNA with C26G, U28A, G31A
DNA 1: CAATCTGAATTCCGGTCTCCC
DNA 2: TGGTGGCTACGACGGGATT
B5: AGUUGUC (DNA:RNA)
RNA: B3 RNA with C25A, C26G, A27U, A29G, G31C
DNA 1: CAATCTGAATTCCGGTCTCCC
DNA 2: TGGTGGCTACGACGGGATT
B6: CAUUCGC (DNA:RNA)
RNA: B3 RNA with C26A, A27U, A29C, U30G, G31C
DNA 1: CAATCTGAATTCCGGTCTCCC
DNA 2: TGGTGGCTACGACGGGATT
B7: GGACGGG (DNA:RNA)
RNA: B3 RNA with C25G, C26G, U28C, A29G, U30G
DNA 1: CAATCTGAATTCCGGTCTCCC
DNA 2: TGGTGGCTACGACGGGATT
B8: UAACGCA (DNA:RNA)
RNA: B1 RNA with U26A, C27A, A30C, C31A
DNA 1: CAATCTGAATTCCGGTCTCCC
DNA 2: TGGTGGCTACGACGGGATT
B9: GUGUUAC (DNA:RNA)
RNA: B1 RNA with U25G, C27G, C28U, G29U
DNA 1: CAATCTGAATTCCGGTCTCCC
DNA 2: TGGTGGCTACGACGGGATT
B10: UGGCACG (DNA:RNA)
RNA: B3 RNA with C25U, C26G, A27G, U28C, U30C
DNA 1: CAATCTGAATTCCGGTCTCCC
DNA 2: TGGTGGCTACGACGGGATT
B11: AAAGGGU (DNA:RNA)
RNA: B3 RNA with C25A, C26A, U28G, A29G, U30G, G31U
DNA 1: CAATCTGAATTCCGGTCTCCC
DNA 2: TGGTGGCTACGACGGGATT
B12: UACCAGU (DNA:RNA)
RNA: B1 RNA with U26A, G29A, A30G, C31U
DNA 1: CAATCTGAATTCCGGTCTCCC
DNA 2: TGGTGGCTACGACGGGATT
B13: CCCAAGG (DNA:RNA)
RNA: B3 RNA with A27C, U28A, U30G
DNA 1: CAATCTGAATTCCGGTCTCCC
DNA 2: TGGTGGCTACGACGGGATT
B14: GGUAUCG (DNA:RNA)
RNA: B3 RNA with C25G, C26G, A27U, U28A, A29U, U30C
DNA 1: CAATCTGAATTCCGGTCTCCC
DNA 2: TGGTGGCTACGACGGGATT
B15: GAAUGUU (DNA:RNA)
RNA: B3 RNA with C25G, C26A, A29G, G31U
DNA 1: CAATCTGAATTCCGGTCTCCC
DNA 2: TGGTGGCTACGACGGGATT
B16: CGCAGUC (DNA:RNA)
RNA: B1 RNA with U25C, U26G, C28A, A30U
DNA 1: CAATCTGAATTCCGGTCTCCC
DNA 2: TGGTGGCTACGACGGGATT
B17: UCUUACG (DNA:RNA)
RNA: B3 RNA with C25U, A27U, U30C
DNA 1: CAATCTGAATTCCGGTCTCCC
DNA 2: TGGTGGCTACGACGGGATT
B18: GUUACCC (DNA:RNA)
RNA: B1 RNA with U25G, C27U, C28A, G29C, A30C
DNA 1: CAATCTGAATTCCGGTCTCCC
DNA 2: TGGTGGCTACGACGGGATT
B19: CUUAGAA (DNA:RNA)
RNA: B1 RNA with U25C, C27U, C28A, C31A
DNA 1: CAATCTGAATTCCGGTCTCCC
DNA 2: TGGTGGCTACGACGGGATT
B20: GGCGUGC (DNA:RNA)
RNA: B1 RNA with U25G, U26G, C28G, G29U, A30G
DNA 1: CAATCTGAATTCCGGTCTCCC
DNA 2: TGGTGGCTACGACGGGATT
B21: UUAUUUA (DNA:RNA)
RNA: B3 RNA with C25U, C26U, A29U, G31A
DNA 1: CAATCTGAATTCCGGTCTCCC
DNA 2: TGGTGGCTACGACGGGATT
B22: GGUAGUG (DNA:RNA)
RNA: B3 RNA with C25G, C26G, A27U, U28A, A29G
DNA 1: CAATCTGAATTCCGGTCTCCC
DNA 2: TGGTGGCTACGACGGGATT
B23: CUUUCGU (DNA:RNA)
RNA: B3 RNA with C26U, A27U, A29C, U30G, G31U
DNA 1: CAATCTGAATTCCGGTCTCCC
DNA 2: TGGTGGCTACGACGGGATT
B24: AGGUGUG (DNA:RNA)
RNA: B3 RNA with C25A, C26G, A27G, A29G
DNA 1: CAATCTGAATTCCGGTCTCCC
DNA 2: TGGTGGCTACGACGGGATT
B25: UCGUCAA (DNA:RNA)
RNA: B3 RNA with C25U, A27G, A29C, U30A, G31A
DNA 1: CAATCTGAATTCCGGTCTCCC
DNA 2: TGGTGGCTACGACGGGATT
B26: CCCAUGU (DNA:RNA)
RNA: B3 RNA with A27C, U28A, A29U, U30G, G31U
DNA 1: CAATCTGAATTCCGGTCTCCC
DNA 2: TGGTGGCTACGACGGGATT
B27: GGAGGGA (DNA:RNA)
RNA: B3 RNA with C25G, C26G, U28G, A29G, U30G, G31A
DNA 1: CAATCTGAATTCCGGTCTCCC
DNA 2: TGGTGGCTACGACGGGATT
B28: GAAUACG (DNA:RNA)
RNA: B3 RNA with C25G, C26A, U30C
DNA 1: CAATCTGAATTCCGGTCTCCC
DNA 2: TGGTGGCTACGACGGGATT
B29: UACGUCG (DNA:RNA)
RNA: B1 RNA with U26A, C28G, G29U, A30C, C31G
DNA 1: CAATCTGAATTCCGGTCTCCC
DNA 2: TGGTGGCTACGACGGGATT
B30: CUGGCCA (DNA:RNA)
RNA: B3 RNA with C26U, A27G, U28G, A29C, U30C, G31A
DNA 1: CAATCTGAATTCCGGTCTCCC
DNA 2: TGGTGGCTACGACGGGATT
B31: UCGAGGC (DNA:RNA)
RNA: B1 RNA with U26C, C27G, C28A, A30G
DNA 1: CAATCTGAATTCCGGTCTCCC
DNA 2: TGGTGGCTACGACGGGATT

Where a chain is given by its changes, count along the chain named. The list shows a part of the results.

For the assay, the target named is T1, RBFOX1 RRM RbFoxmut (Fox-RRM*) (Homo sapiens, UniProt Q9NWB1 109-208, R118D;E147R;N151S;E152T).
T1 sequence: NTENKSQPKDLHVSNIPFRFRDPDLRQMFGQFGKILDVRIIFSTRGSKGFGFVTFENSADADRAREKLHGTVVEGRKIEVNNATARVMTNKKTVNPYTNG
The assay can be described thus: EMSA; HiTS-Eq, 1 nM pool, 10 min; buffer printed only for the single-RNA assays: 10 mM Tris pH 7.5, 150 mM NaCl, 3.4 mM EDTA, 0.001% NP-40, 30 C. To be noted: tags: His6 N-terminal (pET28a); label: 5' 32P. The method, boiled down:
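A pool of RNA with 7 randomized nucleotides, 5′-radiolabelled and with DNA-annealed flanks, was equilibrated at 1 nM for 10 min in 50 µL with purified RbFox RRM, wild type or mutant, across increasing protein concentrations. Free RNA was separated by 8% native PAGE, excised, reverse-transcribed, barcoded by PCR and sequenced. Relative association constants were obtained from read-count changes of each RNA species versus the control reaction and normalised to the cognate motif.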
On the technique in general: In EMSA bound probe runs differently from free probe, usually more slowly.
Regarding B1, the binding signal was 0.0861 KA relative to UGCAUGU. Under B2 stands 0.0627 KA relative to UGCAUGU.

Consider B3, for which the binding signal is 0.123 KA relative to UGCAUGU. With B4 the figure was 0.102 KA relative to UGCAUGU.

For B5, the binding signal is 0.292 KA relative to UGCAUGU. Under B6 stands 0.112 KA relative to UGCAUGU. Under B7 stands 0.061 KA relative to UGCAUGU. Regarding B8, the binding signal is 0.145 KA relative to UGCAUGU. Under B9 stands 0.112 KA relative to UGCAUGU; under B10, 0.351 KA relative to UGCAUGU; under B11, 0.0891 KA relative to UGCAUGU. With B12, the binding signal is 0.0801 KA relative to UGCAUGU. With B13 the figure was 0.0941 KA relative to UGCAUGU; with B14, 0.348 KA relative to UGCAUGU; with B15, 0.884 KA relative to UGCAUGU.

B16: the binding signal was 0.0891 KA relative to UGCAUGU. With B17 the figure was 0.0944 KA relative to UGCAUGU; with B18, 0.0603 KA relative to UGCAUGU. With B19 the figure was 0.14 KA relative to UGCAUGU. Under B20 stands 0.148 KA relative to UGCAUGU. As for B21, the binding signal was 0.107 KA relative to UGCAUGU.

As for B22, the binding signal was 0.251 KA relative to UGCAUGU. With B23 the figure was 0.0941 KA relative to UGCAUGU; with B24, 0.332 KA relative to UGCAUGU; with B25, 0.0917 KA relative to UGCAUGU. With B26 the figure was 0.102 KA relative to UGCAUGU. Under B27 stands 0.0531 KA relative to UGCAUGU; under B28, 0.135 KA relative to UGCAUGU; under B29, 0.0931 KA relative to UGCAUGU.

In the case of B30, the binding signal was 0.107 KA relative to UGCAUGU.

Consider B31, for which the binding signal is 0.104 KA relative to UGCAUGU.

Source of the values: article PMC9911399, “Two distinct binding modes provide the RNA-binding protein RbFox with extraordinary sequence specificity”.
